The other results are listed elsewhere or left out.

The assay deals with S. aureus RN4220. In words: growth inhibition call (relative growth <= 0.2). The settings on record: 50 µM.
In the case of `O=C(O)[C@H](O)c1ccc(F)cc1`, the growth inhibition call is “inactive”.

Take `CO[C@@H]1CN(C)C(=O)c2ccc(NC(=O)NC3CCCCC3)cc2OC[C@@H](C)N(CCc2ccccc2)C[C@H]1C`: the growth inhibition call is “inactive”.

Take `CC1COc2c(C3(N)CC3)c(F)cc3c(=O)c(C(=O)O)cn1c23.CS(=O)(=O)O` (stereo not given): the growth inhibition call was “inactive”.

For `CC(C)C(N)C(=O)OCC(CO)OCn1cnc2c(=O)[nH]c(N)nc21.Cl` (stereo not given), the growth inhibition call is “inactive”.

Turning to `Cc1noc(C)c1NC(=O)N(C)C[C@H]1Oc2ccc(NC(=O)CCN3CCOCC3)cc2C(=O)N([C@H](C)CO)C[C@@H]1C`, the growth inhibition call is “inactive”.

Regarding `C[C@@H]1CCCCO[C@H](CN(C)S(=O)(=O)c2cn(C)cn2)[C@@H](C)CN([C@@H](C)CO)C(=O)c2cc(NC(=O)CCCN(C)C)ccc2O1`, the growth inhibition call was “inactive”.

As for `O=C(C[C@@H]1CC[C@H]2[C@@H](COC[C@@H](O)CN2C(=O)c2ccccc2)O1)N1CCOCC1`, the growth inhibition call was “inactive”.

With `C[C@H](CO)N1C[C@H](C)[C@@H](CN(C)C(=O)Nc2ccccc2F)Oc2ncc(Br)cc2C1=O`, the growth inhibition call is “inactive”.

In the case of `CC(C)(C)NCC(O)c1ccc(O)c(CO)c1` (stereo not given), the growth inhibition call was “inactive”.

`C[C@@H]1CCCCO[C@H](CN(C)S(=O)(=O)c2cn(C)cn2)[C@H](C)CN([C@@H](C)CO)C(=O)c2cc(NC(=O)Nc3cccc4ccccc34)ccc2O1`: the growth inhibition call is “inactive”.

As for `O=C(CCCCC(=O)N/N=C/[C@H](O)[C@@H](O)[C@H](O[C@@H]1O[C@H](CO)[C@H](O)[C@H](O)[C@H]1O)[C@H](O)CO)NO`, the growth inhibition call is “inactive”.

With `Cc1noc(C)c1NC(=O)Nc1cccc2c1O[C@@H](CN(C)S(C)(=O)=O)[C@H](C)CN([C@H](C)CO)C2=O`, the growth inhibition call was “inactive”.

As to `C[C@H](CO)N1C[C@H](C)[C@H](CN(C)C(=O)C2CCCCC2)Oc2cc(C#C[C@@H](C)O)ccc2S1(=O)=O`, the growth inhibition call was “inactive”.

As to `CO[C@H]1CN(C)C(=O)c2cc(NS(=O)(=O)CC(F)(F)F)ccc2OC[C@@H](C)N(Cc2nccs2)C[C@@H]1C`, the growth inhibition call was “inactive”.

In the case of `Nc1nc(=O)c2nc(Br)n([C@H]3O[C@H]4CO[PH](O)(O)O[C@@H]4[C@@H]3O)c2[nH]1`, the growth inhibition call was “inactive”.

For `Cn1c(=O)[nH]c2nc[nH]c2c1=O`, the growth inhibition call is “inactive”.

Consider `C[C@@H]1CCCCO[C@@H](CN(C)S(=O)(=O)c2cccs2)[C@@H](C)CN([C@H](C)CO)C(=O)c2cc(NC(=O)C3CCCCC3)ccc2O1`, for which the growth inhibition call is “inactive”.

As for `CO[C@@H]1CN(C)C(=O)c2ccc(NC(=O)C3CCOCC3)cc2OC[C@H](C)N(Cc2cccnc2)C[C@H]1C`, the growth inhibition call was “inactive”.

Take `CN(C)C(=O)C[C@@H]1CC[C@@H]2[C@@H](COc3ccc(NS(=O)(=O)c4cccc(F)c4)cc3C(=O)N2C)O1`: the growth inhibition call was “inactive”.

Turning to `CN(C)C(=O)CN1CCC2(CC1)O[C@H](C(=O)NCc1ccccn1)Cn1ccnc12`, the growth inhibition call was “inactive”.

Take `COCC#Cc1cnc2c(c1)C(=O)N([C@@H](C)CO)C[C@@H](C)[C@@H](CN(C)C(=O)Nc1cc(F)ccc1F)O2`: the growth inhibition call is “inactive”.

For `C[C@H]1CN([C@@H](C)CO)C(=O)c2cc(NS(=O)(=O)c3cccs3)ccc2O[C@H]1CN(C)C(=O)Nc1cccc2ccccc12`, the growth inhibition call is “inactive”.

Turning to `COC(=O)c1cccc(OC(N)=O)c1`, the growth inhibition call is “inactive”.

Consider `Cc1cccn2c(=O)c(-c3nn[nH]n3)cnc12`, for which the growth inhibition call was “inactive”.

Take `C[C@H](CO)N1C[C@H](C)[C@@H](CN(C)C(=O)C2CCOCC2)Oc2cc(-c3ccc(F)cc3)ccc2S1(=O)=O`: the growth inhibition call is “inactive”.

Take `Oc1cc(O)c2c(c1)O[C@H](c1ccc(O)c(O)c1)[C@H](O)[C@H]2c1c(O)cc(O)c2c1O[C@H](c1ccc(O)c(O)c1)[C@@H](O)C2`: the growth inhibition call is “inactive”.

Consider `COc1c(OCCCN2CCOCC2)ccc2c1N=C(NC(=O)c1cnc(N)nc1)N1CCN=C21`, for which the growth inhibition call is “inactive”.

Consider `CC(NC(=NC#N)Nc1ccncc1)C(C)(C)C` (stereo not given), for which the growth inhibition call is “inactive”.

As for `COc1ccc(cc1)NC(=O)N1C[C@]2(C1)CN([C@H](CO)c1[nH]c3cc(ccc3c12)OC)C(=O)CN1CCOCC1`, the growth inhibition call is “inactive”.

`COc1ccc(-c2oc3c(CC=C(C)C)c(O[C@@H]4O[C@H](CO)[C@@H](O)[C@H](O)[C@H]4O)cc(O)c3c(=O)c2O[C@@H]2O[C@@H](C)[C@H](O)[C@@H](O)[C@H]2O)cc1`: the growth inhibition call was “inactive”.

`O=C(NCc1ccncc1)C(=O)NC[C@H]1OCCN1C(=O)c1ccc(Cl)cc1`: the growth inhibition call was “inactive”.

As for `C[C@H](CO)N1C[C@H](C)[C@@H](CN(C)Cc2ccc(Oc3ccccc3)cc2)Oc2c(NS(=O)(=O)c3ccccc3)cccc2C1=O`, the growth inhibition call was “inactive”.

With `COc1ccc([Si](C)(C)[C@@H]2[C@@H](CCO)O[C@]3(C(=O)N(Cc4cccc(N5C(=O)COc6ccccc65)c4)c4ccccc43)[C@H]2C)cc1`, the growth inhibition call is “inactive”.

With `C[C@@H]1CN([C@H](C)CO)C(=O)c2cc(NS(=O)(=O)c3cccs3)ccc2O[C@@H](C)CCCCO[C@@H]1CN(C)Cc1ccccc1`, the growth inhibition call is “inactive”.

Take `C[C@@H]1CCCCO[C@@H](CN(C)C(=O)c2ccncc2)[C@H](C)CN([C@@H](C)CO)C(=O)c2cc(NS(C)(=O)=O)ccc2O1`: the growth inhibition call was “inactive”.

As for `C[C@H]1CN([C@@H](C)CO)C(=O)c2cccc(NS(=O)(=O)c3ccc(F)cc3)c2O[C@@H]1CN(C)S(=O)(=O)c1cn(C)cn1`, the growth inhibition call was “inactive”.

In the case of `C[C@@H]1CCCCO[C@@H](CN(C)Cc2ccc(C(F)(F)F)cc2)[C@H](C)CN([C@@H](C)CO)C(=O)c2cc(NS(=O)(=O)c3ccc(Cl)cc3)ccc2O1`, the growth inhibition call was “inactive”.

With `O=C(C[C@H]1CC[C@H]2[C@@H](COC[C@@H](O)CN2S(=O)(=O)c2ccc(Cl)cc2)O1)NCCN1CCCCC1`, the growth inhibition call was “inactive”.

As for `C[C@H]1CCCCO[C@H](CN(C)Cc2ccc(Cl)c(Cl)c2)[C@@H](C)CN([C@@H](C)CO)C(=O)c2cc(NC(=O)Cc3ccccc3)ccc2O1`, the growth inhibition call was “inactive”.

For `C[C@H]1CN([C@@H](C)CO)C(=O)c2cccc(NC(=O)c3cnccn3)c2O[C@H]1CN(C)CC1CCCCC1`, the growth inhibition call is “inactive”.
